Results on ten compounds are retold here after PubChem BioAssay AID1259407 (Chemical Carcinogenesis Research Information System (CCRIS), 2018).

Molecules are shown by their SMILES. For part of its entries the source gives two or more results. The list is limited to them. No rule for the calls is given here. The source may hold further records. Values that stand side by side repeat one measurement in other runs, samples, wells, individuals or studies. What stands in brackets tells the records apart. A, B and so on number the origins entry by entry.

This data set concerns CCRIS mutagenicity, Ames/micronucleus/aberration tests. Nature of the data set: CCRIS mutagenicity studies. The settings on record: Test System: AMES SALMONELLA TYPHIMURIUM
The mark [1] stands for this setting: Strain/Indicator: TA100, Metabolic Activation: NONE, Method: STANDARD PLATE.
[2] abbreviates: Strain/Indicator: TA100, Metabolic Activation: NONE, Method: PREINCUBATION
Setting [3] is: Strain/Indicator: TA98, Metabolic Activation: NONE, Method: STANDARD PLATE.
[4] abbreviates: Strain/Indicator: TA1538, Metabolic Activation: RAT, LIVER, S-9, AROCLOR 1254, Method: STANDARD PLATE.
Setting [5] is: Strain/Indicator: TA100, Metabolic Activation: RAT, LIVER, S-9, Method: STANDARD PLATE.

Regarding `c1ccc2c(c1)ccc1c2ccc2cccnc21`, the mutagenic call under setting [1] was “inactive; negative [study A, 0.1 to 50 µg/plate] and active; positive [study B, 0 to 50 µg/plate]”.

On to `C=C(C=O)CCC`, for which the mutagenic call under setting [2] is “inactive; negative [study A] and active; positive [study B]”.

For the compound `c1ccc2c(c1)ccc1cc3cnccc3cc12`, the mutagenic call is “inactive; negative [study A, 0.1 to 50 µg/plate] and active; positive [study B, 0 to 50 µg/plate]” under setting [3]; “inactive; negative [study A, 0.1 to 50 µg/plate] and active; positive [study B, 0 to 50 µg/plate]” under setting [1].

For the compound `Nc1cc2c3ccccc3ccc2c2ccccc12`, the mutagenic call reads like this: (Strain/Indicator: TA1537, Metabolic Activation: RAT, LIVER, S-9, AROCLOR 1254, Method: STANDARD PLATE) “inactive; negative [study A] and active; positive [study B]”; under setting [4], “inactive; negative [study A] and active; positive [study B]”.

On to `OC(O)C(Cl)(Cl)Cl`, for which, under setting [2], the mutagenic call was “active; positive [study A] and inactive; negative [study B]”.

For the compound `c1ccc2c(c1)cc1ccc3cc4ccccc4c4ccc2c1c34`, the mutagenic call under setting [4] was “inactive; negative [study A] and active; positive [study B]”.

`c1ccc2c(c1)ccc1c3cccnc3ccc21`: the mutagenic call by setting is: under setting [3], “inactive; negative [study A, 0.1 to 20 µg/plate] and active; positive [study B, 0 to 10 µg/plate]”; under setting [1], “inactive; negative [study A, 0.1 to 20 µg/plate] and active; positive [study B, 0 to 10 µg/plate]”.

Regarding `CCOS(C)(=O)=O`, the mutagenic call (Strain/Indicator: TA98, Metabolic Activation: RAT, LIVER, S-9, AROCLOR 1254, Method: STANDARD PLATE) was “active; positive [study A] and inactive; negative [study B]”; the mutagenic call (Strain/Indicator: TA1535, Metabolic Activation: NONE, Method: PREINCUBATION) is “active; positive [study A] and active; positive [study B] and inactive; negative [study C]”.

As for `CN(C)N=O`, the mutagenic call under setting [5] was “inactive; negative [study A] and active; positive [study B]”.

On to `O=NN1CCCCC1`, for which, under setting [5], the mutagenic call was “inactive; negative [study A] and active; positive [study B]”.
